According to PubChem BioAssay AID463173 (ICCB-Longwood Screening Facility, Harvard Medical School, 2010):
The campaign covered roughly 52,000 compounds. About 1,700 (3.3%) were called active. No stated cut-off is given here; in the data, active means survival mostly below about 52% (no sharp cut-off); inactive means mostly above about 56%. The list shows a part of the results.

The compounds below were run on Wild type (assay: growth inhibition of S. aureus wild type versus tarO mutant, primary screen, teichoic acid synthesis inhibitors, RN4220, OD600 (AID 463173)). Details: S. aureus RN4220 wild type/DeltatarO growth, OD600, 18 h, hits give low values, screened at 18.75 µg/mL (by protocol).
`Cc1cccc(N2CCN(c3ccc4cc(S(=O)(=O)N5CCC(C)CC5)ccc4n3)CC2C)c1` (stereo not given) was tested, and the survival was inactive: 129%. For `CC(=O)c1ccc(NC(=O)CSc2nccn2C2CCCC2)cc1`, the survival was inactive: 74%. In the case of `CC(C)CC(=O)Nc1cccc(-c2cn3cccnc3n2)c1`, the survival is reported as inactive: 72%. With `CCCn1c(=O)c2sccc2n2c(CCCC(=O)N3CCN(c4ccc(OC)cc4)CC3)nnc12` the survival was inactive: 99%. In the case of `CCOc1ccc(NC(=O)CSc2nc3ccccc3nc2N2CCOCC2)cc1`, the survival is reported as inactive: 112%. In the case of `COc1ccc(CNC(=O)c2cc3cccc4c3n2CC(C)S4)cc1` (stereo not given), the survival is reported as inactive: 89%. For `COc1ccc(S(=O)(=O)NC(C)(C)CO)cc1-c1nnc2c3ccccc3c(C)nn12`, the survival was inactive: 93%. In the case of `O=c1c(N2CCN(c3ccc(F)cc3)CC2)csc2ccc(F)cc12`, the survival is reported as inactive: 67%. `Cc1nn(-c2cccc(Cl)c2)c2nc(-c3cccnc3)cc(C(F)(F)F)c12` was tested, and the survival was inactive: 83%. With `CC1CCN(S(=O)(=O)c2ccc3nc(Nc4cccc(F)c4)ccc3c2)CC1` the survival was inactive: 51%. `CCOCCCNC(=O)CN1C(=O)COc2ccc(S(=O)(=O)N3CCOCC3)cc21` was tested, and the survival was inactive: 100%. With `COc1ccc(-c2cc(C(F)(F)F)nc(SCCC(=O)Nc3ccc(F)cc3F)n2)cc1` the survival was inactive: 76%. `COc1ccc(CNC(=O)c2cc(-c3ccc(OC)c(OC)c3)nc3n[nH]c(-c4ccc(C)cc4)c23)cc1` was tested, and the survival was inactive: 74%. In the case of `CC(=O)c1ccc(NC(=O)CSc2nnc3c(n2)[nH]c2ccccc23)cc1`, the survival is reported as inactive: 135%. In the case of `CCOC(=O)CN1CCC(n2nnc3cc(C(F)(F)F)ccc32)CC1`, the survival is reported as inactive: 110%. With `O=C(Nc1ccc(F)cc1F)c1ccc(-n2cnc3cccnc32)cc1` the survival was inactive: 73%. `COc1ccc(N(C)C(=O)c2oc(=O)c3ccccc3c2-c2ccc(C)cc2)c(OC)c1` was tested, and the survival was inactive: 81%. For `CCOC(=O)C1CCCN(CCC(=O)Nc2ccc(Br)c(C)c2)C1` (stereo not given), the survival was inactive: 104%. In the case of `N#Cc1c(-n2ncnc2-c2ccccc2Cl)sc2c1CCCCC2`, the survival is reported as inactive: 38%. For `COc1ccc(N2CCN(C(=O)CCCCn3c(=O)[nH]c4ccsc4c3=O)CC2)cc1`, the survival was inactive: 116%. For `Clc1ccc(-c2nc3ncccn3c2Nc2ccc3c(c2)OCCO3)cc1`, the survival was inactive: 82%. `OCC#CCSc1nc2ccccc2s1` was tested, and the survival was inactive: 113%. `CCOC(=O)c1ccc(N2C(=O)c3n[nH]c(-c4cccs4)c3C2c2cccc(O)c2)cc1` (stereo not given) was tested, and the survival was inactive: 24%. `O=C(CCC1N=C2c3ccccc3N=C(SCc3ccc(F)cc3)N2C1=O)N1CCN(c2ccccc2)CC1` (stereo not given) was tested, and the survival was inactive: 79%. In the case of `Cc1cc(C)c(OCC(=O)N/N=C/c2ccc(O)cc2O)c(Br)c1`, the survival is reported as inactive: 122%. For `CCOC(=O)C1CCN(C(c2ccc(C)cc2)c2sc3nc(-c4ccco4)nn3c2O)CC1` (stereo not given), the survival was inactive: 72%. For `CCOc1ccc(/C=C(\C#N)C(=O)Nc2sc3c(c2C(=O)OC)CCC3)cc1OC`, the survival was inactive: 137%. For `CC(C)c1ccc(CNC(=O)c2ccc(N3CCCC3)c(NC(=O)NCc3ccc(F)cc3)c2)cc1`, the survival was inactive: 60%. In the case of `Cc1ccc(CNC(=O)CCc2c(C)c3cc4c(C)coc4cc3oc2=O)cc1`, the survival is reported as inactive: 104%. For `COC(=O)c1c(SCC(=O)Nc2ccccc2C(F)(F)F)[nH]c2ccc(Cl)cc2c1=O`, the survival was inactive: 73%. For `Cc1cccc(Nc2cc(C)nc3nc(-c4ccccc4)nn23)c1`, the survival was inactive: 109%. With `CCCNC(=O)c1ccc(Cn2c(SCC(N)=O)nc3ccccc3c2=O)cc1` the survival was inactive: 81%. `NCC(O)CN(c1ccccc1)c1ccccc1` (stereo not given) was tested, and the survival was inactive: 97%. `COc1ccc(OC)c(NC(=O)c2cc3cccc(OC)c3oc2=O)c1` was tested, and the survival was inactive: 80%. In the case of `COc1cccc(CNC(=O)Cn2ncn3c(cc4ccccc43)c2=O)c1`, the survival is reported as inactive: 75%. With `Cc1nn(-c2ccccc2)c(OC(=O)c2ccc(Cl)cc2)c1S(=O)(=O)c1ccccc1` the survival was inactive: 55%. For `Cc1ccc(-c2nc3cccc(C)n3c2Nc2ccc3c(c2)OCO3)o1`, the survival was inactive: 22%. With `CCOc1ccccc1C(=O)N1CCc2cc(OC)c(OC)cc2C1COc1ccc(OC)cc1` (stereo not given) the survival was inactive: 60%. In the case of `Cc1cc(-c2ccccc2)nc2cc(C(N)=O)nn12`, the survival is reported as inactive: 99%. For `COc1ccc(CNS(=O)(=O)c2cc3c(cc2Cl)NC(=O)CO3)cc1`, the survival was inactive: 80%. For `CCC(=O)Oc1c(Sc2ccc(C)cc2)c(C)nn1-c1ccccc1`, the survival was inactive: 55%. In the case of `CC(C)CC(=O)Nc1ccc2nc(SCC(=O)N3CCOCC3)sc2c1`, the survival is reported as inactive: 108%. `O=C(CSc1nc(=O)n(CCN2CCOCC2)c2c1CCC2)Nc1ccc(F)cc1F` was tested, and the survival was inactive: 146%. With `O=C(c1cc(-c2ccc(Br)cc2)n[nH]1)N1CCN(S(=O)(=O)c2ccc(Cl)s2)CC1` the survival was inactive: 68%. For `CCNc1nc2c(c(=O)n(C)c(=O)n2C)n1CC`, the survival was inactive: 115%. In the case of `CCOC(=O)c1cc(-c2ccc(F)cc2)n(CCC(=O)Nc2cc(OC)cc(OC)c2)c1C`, the survival is reported as inactive: 70%. For `CCN(CC)c1ccc(-n2nc3cc(C)c(NC(C)=O)cc3n2)cc1`, the survival was inactive: 108%. For `CCC(=O)Nc1nnc(SCCOC)s1`, the survival was inactive: 120%. For `Cn1c(=O)c2c(nc(N3CCOCC3)n2Cc2ccccc2F)n(C)c1=O`, the survival was inactive: 74%. With `O=C(Nc1ccccc1C(F)(F)F)C1CCN(S(=O)(=O)c2ccccc2)CC1` the survival was inactive: 72%. In the case of `O=C(CSc1nc2ncccc2o1)Nc1ccc(Cl)cc1F`, the survival is reported as inactive: 81%. With `COC(=O)CSc1nc2sc3c(c2c(=O)n1-c1ccccc1)C(C)CCC3` (stereo not given) the survival was inactive: 82%. `CC(C)Oc1ccc(C(=O)Nc2nnc3n2CCS3)cc1` was tested, and the survival was inactive: 135%. For `COc1cc(C2c3c(-c4cc(C)ccc4O)n[nH]c3C(=O)N2Cc2ccco2)cc(OC)c1OC` (stereo not given), the survival was inactive: 73%. For `O=C(CSc1nc(O)cc(=O)[nH]1)Nc1ccccc1`, the survival was inactive: 102%. With `CCCc1nn2c(=O)cc(COC(=O)c3cccc(NC(=O)c4ccc(OCC)cc4)c3)nc2s1` the survival was active: -2%. With `O=C(Cn1cc(SCc2ccc(Cl)cc2)c2ccccc21)N1CCOCC1` the survival was inactive: 79%. In the case of `Cc1cc(Cl)ccc1NS(=O)(=O)c1c(C(=O)N2CCCCCC2)c(C)n(C)c1C`, the survival is reported as inactive: 77%. In the case of `COc1ccc(NC(=O)c2cc(S(=O)(=O)N3CCCC(C)C3)cn2C)c(OC)c1` (stereo not given), the survival is reported as inactive: 68%. `COc1ccc(NC(=O)CSc2nc3ccccc3n2CC(=O)N(C)C2CCCCC2)cc1` was tested, and the survival was inactive: 134%. With `Cc1c(Cl)cccc1NC(=O)CSc1nc(=O)[nH]c2c1CCC2` the survival was inactive: 66%. `O=S(=O)(c1cccc(Cl)c1)n1c(/C=C/c2ccccc2Cl)nc2ccccc21` was tested, and the survival was inactive: 54%. For `O=c1n(Cc2ccccc2)nc2n1-c1cc(Cl)ccc1OC2`, the survival was inactive: 63%. For `Cc1c2cnn(-c3ccccc3)c(=O)c2c(C)n1CCCC(=O)Nc1cccc(F)c1`, the survival was inactive: 77%. In the case of `Cc1ccc(-c2c3c(=O)n(C)c(=O)n(C)c3c3c(-c4cccc(C)c4)nc4ccccc4n23)cc1`, the survival is reported as inactive: 78%. For `COC(=O)c1ccccc1NC(=O)c1ccc2c(c1)CCN2S(=O)(=O)c1ccc(Cl)cc1`, the survival was inactive: 86%. With `Cc1ccc(C)c(Cn2c3ccccc3c3cnn(CC(=O)NC4CCCCCC4)c(=O)c32)c1` the survival was inactive: 90%. For `COc1ccc(-c2cc(OC(=O)c3cccc(Cl)c3)c3c(C)oc(C)c3c(=O)c2)cc1OC`, the survival was inactive: 76%. In the case of `COc1ccc(CN(Cc2ccco2)C(=O)COc2ccccc2Cl)cc1`, the survival is reported as inactive: 62%. For `N#Cc1nc(/C=C/c2ccc(F)cc2)oc1N1CCCCCC1`, the survival was inactive: 69%. For `CC(NS(=O)(=O)c1ccc2c(c1)CCN2C(=O)CCCC(=O)O)c1ccccc1` (stereo not given), the survival was inactive: 87%. With `Cc1ccccc1NC(=O)CSc1nc(-c2cccs2)nc2cc(=O)[nH]n12` the survival was inactive: 78%. With `COc1ccc(-n2nc(C(=O)Nc3cc(C)c(Cl)cc3OC)c3c4ccccc4n(C)c3c2=O)cc1` the survival was inactive: 78%. With `COc1cc(OC)cc(C(=O)N2CCN(C(=O)COc3ccc(C)cc3)CC2)c1` the survival was inactive: 74%. In the case of `COc1cccc(-n2c(SCC(=O)Nc3ccc4c(c3)OCO4)nc3c([nH]c4ccccc43)c2=O)c1`, the survival is reported as inactive: 87%. In the case of `CCN(CC)c1ccc(NC(=O)Cn2nc3c(cc2=O)CCCC3)c(C)c1`, the survival is reported as inactive: 81%. With `CCc1c(C)sc(NC(=O)c2cc3nc(-c4ccc(OC)cc4)cc(C(F)(F)F)n3n2)c1C(=O)OC` the survival was inactive: 94%. For `CC1=C(C(=O)Nc2ccccc2)C(c2ccc(Br)cc2)n2nc(CCCO)nc2N1` (stereo not given), the survival was inactive: 79%. For `COc1ccc(-n2ncc3c2ncn2nc(-c4ccc(OC)c(OC)c4)nc32)cc1`, the survival was inactive: 87%. With `CCCCN(CCCC)CCCNC(=O)c1cc(-c2ccc(Cl)s2)nc2ccccc12` the survival was inactive: 52%. `CC(C)c1ccc(C2CC(=O)N3CN(C4CCCCC4)CSC3=C2C#N)cc1` (stereo not given) was tested, and the survival was inactive: 68%. With `CCc1nc2ccccc2n1CC(C)C(=O)O` (stereo not given) the survival was inactive: 108%. For `Cn1ccc2cc(S(=O)(=O)N3CCCC(C(=O)NCc4ccccc4F)C3)ccc21` (stereo not given), the survival was inactive: 90%. With `CN(C)c1ccc(NC(=O)CSc2nc(N)cc(=O)[nH]2)cc1` the survival was inactive: 118%. For `Cc1ccccc1-c1nc(CNC(=O)NC2CCCCC2)c(C)o1`, the survival was inactive: 73%. With `COc1ccccc1N1CCN(C(=O)c2nn(C)c3c2CS(=O)(=O)c2ccccc2-3)CC1` the survival was inactive: 83%. In the case of `CCCc1cc(=O)[nH]c(Nc2cc(Cl)cc(Cl)c2)n1`, the survival is reported as inactive: 16%. With `CCn1cc2nc(SCc3cc(C)ccc3C)n(Cc3ccc(Cl)cc3)c(=O)c2n1` the survival was inactive: 88%. For `Cc1nn(Cc2ccc(F)cc2)c(C)c1NC(=O)c1noc2c1CCc1ccccc1-2`, the survival was inactive: 90%. With `CCN(CC)c1ccc(CN(C(=O)c2cc(=O)c3ccccc3o2)C2CCS(=O)(=O)C2)cc1` (stereo not given) the survival was inactive: 76%.
